Assay results reported in patent US20060104971A1, “Multivalent lymphotoxin beta receptor agonists and therapeutic uses thereof” (Biogen Idec MA Inc., priority 2002, published 2006).

Tests used:
[1] = test system: HT29 adenocarcinoma cell line; assay: HT29 tumor cell growth inhibition (MTT) with interferon gamma; format: cell-based; details: HT29 cells, human interferon gamma 80 U/ml, 4 days in culture, MTT staining; lower absorbance = more growth reduction
[2] = Avidity of secreted chCBE11 with IgM tailpiece; format: binding; details: secreted by 293-EBNA cells co-transfected with pEAG995 and pEAG982
[3] = target: T1, surface LT-β-R on HT29 cells (Homo sapiens, UniProt P36941); assay: Flow cytometry staining of surface LT-β-R on HT29 cells; format: binding
T1 construct: endogenous in cells; host or cells: HT29
T1 sequence (P36941 31-435): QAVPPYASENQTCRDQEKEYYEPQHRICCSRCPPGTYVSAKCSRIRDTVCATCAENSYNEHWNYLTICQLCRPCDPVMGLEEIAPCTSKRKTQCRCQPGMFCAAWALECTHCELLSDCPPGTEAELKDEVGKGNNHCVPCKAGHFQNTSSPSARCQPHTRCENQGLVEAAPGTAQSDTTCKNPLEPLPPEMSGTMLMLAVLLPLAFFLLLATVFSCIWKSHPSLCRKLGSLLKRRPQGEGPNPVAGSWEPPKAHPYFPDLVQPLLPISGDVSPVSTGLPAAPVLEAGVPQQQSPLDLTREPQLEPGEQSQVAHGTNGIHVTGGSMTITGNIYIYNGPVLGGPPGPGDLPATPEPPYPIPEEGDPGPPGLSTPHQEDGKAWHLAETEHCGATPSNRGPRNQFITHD

[4] = test system: surface LT-β-R on COS7 cells; details: flow cytometry

Molecule | minimum A450 (plateau corresponding to maximum of activity) [1] | avidity [2] | ability to stain surface LT-β-R on HT29 cells [3] | ability to stain surface LT-β-R on COS7 cells [4]
CBE11 pentamer: chimeric CBE11-huIgG1 heavy chain with IgM C-terminal tailpiece plus chimeric CBE11 light chain; ten antigen-binding sites; SEQ ID NO: 18 and 20 (antibody) heavy: EVQLVESGGGLVKPGGSLKLSCAASGFTFSDYYMYWFRQTPEKRLEWVATISDGGSYTYYPDSVKGRFTISRDNAKNNLYLQMSSLKSEDTAMYYCVREENGNFYYFDYWGQGTTVTVSS[left out - human IgG1 constant region with changes and a few adjoining residues] light: DIKMTQSPSSMYASLGERVTITCKAGQDIKSYLSWYQQKPWKSPKILIYYATRLADGVPSRFSGSGSGQDYSLTISSLESDDTATYYCLQHGESPWTFGGGTKLEIKRTVAAPSVFIFPPSDEQLKSGTASVVCLLNNFYPREAKVQWKVDNALQSGNSQESVTEQDSKDSTYSLSSTLTLSKADYEKHKVYACEVTHQGLSSPVTKSFNRGEC | 0.3 | greatly enhanced avidity |  | 
huCBE11/huBHA10 Bispecific-2: scFv.huCBE11 fused by 2× Gly4Ser linker to human IgG1 Fc, fused at Fc C-terminus to scFv.huBHA10; SEQ ID NO: 6 (protein) EVQLVESGGGLVKPGGSLRLSCAASGFTFSDYYMYWFRQAPGKGLEWVATISDGGSYTYYPDSVKGRFTISRDNAKNSLYLQMSSLRAEDTAVYYCAREENGNFYYFDYWGQGTTVTVSSGGGGSGGGGSGGGGSDIQMTQSPSSLSASVGDRVTITCKAGQDIKSYLSWYQQKPGKAPKLLIYYATRLADGVPSRFSGSGSGTDYTLTISSLQPEDFATYYCLQHGESPWTFGGGTKLEIKGGGGSGGGGS[left out - human IgG1 Fc with changes]GGGSGGGGSQVQLVQSGAEVKKPGSSVKVSCKASGYTFTTYYLHWVRQAPGQGLEWMGWIYPGNVHAQYNEKFKGRVTITADKSTSTAYMELSSLRSEDTAVYYCARSWEGFPYWGQGTTVTVSSGGGGSGGGGSGGGGSDIQMTQSPSSLSASVGDRVTITCKASQNVGINVAWYQQKPGKAPKSLISSASYRYSGVPSRFSGSGSGTDFTLTISSLQPEDFATYFCQQYDTYPFTFGQGTKVEIK |  |  | ability to stain | ability to stain
